Assay results as given in ChEMBL document CHEMBL4888484, “Replenishing the malaria drug discovery pipeline: Screening and hit evaluation of the MMV Hit Generation Library 1 (HGL1) against asexual blood stage Plasmodium falciparum ,using a nano luciferase reporter read-out” (2022).
The campaign covered roughly 150,000 compounds. About 540 (0.36%) showed an effect of 50% or more. This is one part of the list.

test system: Plasmodium falciparum; experiment: Primary screen in NF54 nanoGlo assay, in single point, at 2uM, 72h; a lower Z score goes with more inhibition; format: functional, Erythrocyte; details: timepoint 72 hour

Row | SMILES | % Inhibition [%] | Z score
1 | OC1CC(C2CCCCC2)N(C[C@H](O)c2ccc(Cl)cc2)C1 (stereo not given in full) | 14 | -1.64
2 | N#Cc1ccc(S(=O)(=O)N2CCCOCCNC(=O)[C@@H]3CCC[C@@H]32)cc1 | 3 | -0.49
3 | CN(Cc1ccncc1)Cc1csnn1 | 1 | -0.07
4 | Cc1nnc([C@@H]2CCCN2Cc2cccs2)[nH]1 | -9 | 1.08
5 | CC1(C)COCCN1C(=O)c1ccc(Cl)c(S(=O)(=O)N2CCCCCC2)c1 | -13 | 2.46
6 | O=S1(=O)CC[C@H](Nc2nc(-c3ccccc3)no2)C1 | -5 | 0.92
7 | Cc1nccc(NC(=O)Cc2c(C)noc2C)c1Cl | 26 | -2.93
8 | Cc1noc2ncnc(NCCc3cnn(-c4ccccc4)c3)c12 | -20 | 1.88
9 | COc1ccc(F)cc1CN1CC[C@]2(O)CCN(C(=O)C3CCCC3)C[C@@H]2C1 | -12 | 1.63
10 | CC1=C[C@@H](CNc2ccccn2)[C@H](C(C)C)C[C@H]1Cc1nnc(-c2cncn2C)o1 | -10 | 1.53
11 | CCN(CC)C(=O)[C@H](C)N1CCc2ncc(C(F)(F)F)cc2C1 | 5 | -0.94
12 | CC1CCN(C[C@H]2CCCN(C(=O)c3cccc(F)c3)CC2)CC1 | 1 | -0.2
13 | Nc1nc(CCNC(=O)c2ccc(Cl)s2)cs1 | -20 | 3.39
14 | CCOc1ccc(NC(=O)CCn2ccc(=O)[nH]c2=O)cc1 | -9 | 1.05
15 | CC1CC(C(N)=O)c2ccccc2N1Cc1nc2ccccc2o1 (stereo not given) | -1 | 0.13
16 | O=C(NC(c1ccc(F)cc1)C1CCCC1)C1CCCN(C(=O)c2ccoc2)C1 (stereo not given) | -6 | 0.77
17 | COc1ccc([C@H]2C(=O)N(CCc3ccccc3)CC(=O)N2C2CCCCC2)cc1 | 2 | -0.25
18 | Cc1ccnc(NC(=O)CCC2CCCCC2)n1 | -7 | 1.03
19 | CN(Cc1nc([C@H]2CCOC2)no1)c1ccccc1 | 8 | -1.14
20 | NC(=O)CCn1ccc(Nc2nccc(C(F)(F)F)n2)n1 | -8 | 0.77
21 | COC(=O)CS(=O)(=O)N1CC(S(=O)(=O)CC(C)C)C1 | -7 | 1.11
22 | COc1ccc(F)c(CN2CCC[C@@]3(CCN(C(=O)c4c[nH]nc4C)C3)C2=O)c1 | -15 | 1.99
23 | Fc1cnc(NCCCn2ccnc2)nc1 | -4 | 0.46
24 | Cc1cc(C)c(CN[C@@H](C)CCC(C)C)c(C)c1CO | 7 | -1.08
25 | CC(C)c1ncsc1C(=O)N[C@H](C)c1ccc(Cl)cn1 | -4 | 0.51
26 | CCOCc1cc(CN2CC[C@H](N3CCN(C)CC3)[C@@H](O)C2)ccc1OC | -3 | 0.65
27 | CC(=O)N(CCN1CCCCC1)[C@H]1CCCN(C(=O)c2ncoc2-c2cccc(C)c2)C1 | -15 | 2
28 | c1nc(CN2CCc3nc(CC4CC4)nc(NC4CC4)c3CC2)c[nH]1 | -17 | 1.69

Row | SMILES | % Inhibition [%] | Z score
29 | Cc1cnccc1N1CCCO[C@@H](CF)C1 | -18 | 2.21
30 | O=C1CCC(=O)N1C1CC2CCC(C1)N2C(=O)CC(c1ccccc1)c1ccccc1 (stereo not given) | -12 | 1.35
31 | COCCCN(C)C(=O)Nc1ccc(C)cn1 | -7 | 0.64
32 | CN(Cc1nccs1)c1nc2nonc2nc1N1CCCCC1 | 0 | 0.03
33 | CN1C(=O)C[C@H](C(=O)NCc2ccc3[nH]cnc3c2)C1(C)C | -4 | 0.39
34 | Cn1cc(CNC2CCCCCC2)cn1 | -13 | 1.72
35 | O=C(NCCNCc1ccc(Cl)cc1)c1cccs1 | 29 | -3.87
36 | COc1ccccc1OCc1n[nH]c([C@@H]2CCCO2)n1 | 11 | -2.04
37 | O=C(CCc1ccncc1)N1CC[C@@H](O)[C@H]1c1ccc(Cl)cc1 | -10 | 0.85
38 | COc1cncc(O[C@H]2CCCN(C(=O)N3CCN(C)CC3)C2)n1 | -5 | 0.79
39 | Cc1nscc1C(=O)N[C@H]1CC(=O)N(c2c(F)cccc2F)C1 | -10 | 1.92
40 | COc1ccc(NC(=O)N(C)C[C@H](C)c2nccs2)cc1C | -11 | 1.02
41 | CCc1nnc(CNc2ccc(Br)cc2C(C)=O)o1 | -19 | 2.13
42 | CN(C)C(=O)CN1CCN(C(=O)c2c3c(nc4ccccc24)CCC3)CC1 | -16 | 1.43
43 | Cc1nc([C@H]2CC23CCN(S(=O)(=O)Cc2ccccc2)CC3)no1 | -17 | 2.49
44 | Cc1cccc(NS(=O)(=O)c2ccc3c(c2)Cc2cc(S(=O)(=O)Nc4cccc(C)c4)ccc2-3)c1 | 40 | -4.52
45 | C#C[C@H](CC)NC(=O)N1CCC(OCC2CC2)CC1 | -6 | 0.71
46 | CCn1nc(CC(C)C)cc1C(=O)N1CCc2nocc2C1 | 3 | -0.32
47 | CC(C)Oc1ccc(CNC(=O)CC2CCN(C(=O)c3cc4ccccc4[nH]3)CC2)cc1 | -26 | 2.35
48 | CC(C)Cc1nc(C(=O)N2CCCOC2)cs1 | 4 | -0.58
49 | CC1CCN(c2onc(-c3ccccc3)c2CN(Cc2ccco2)C(=O)Nc2cccc(Cl)c2)CC1 | 9 | -1.09
50 | COc1ccc(OCc2nc3c4c(ncn3n2)-c2ccccc2CC42CCCCC2)cc1 | -8 | 0.89
51 | CCC(=O)Nc1ccc(Cl)c(NCC(=O)N(CC)CCC#N)c1 | -13 | 1.29
52 | COc1ccc(CNC(=O)[C@]2(C)Cn3cnc(C(=O)NCCc4ccco4)c3C(=O)N2C2CC2)cc1 | -26 | 2.61
53 | Cc1cc(C(=O)NCc2cccnc2Oc2ccc(F)cc2F)[nH]n1 | -4 | 0.49
54 | O=C(Cc1noc2ccccc12)N[C@H]1CC[C@H](Oc2cnccn2)CC1 | -19 | 2.14
55 | CCC(CC)CNC(=O)c1ccc(-n2nc(-c3nnc(C)o3)cc2C(C)(C)C)cc1 | -7 | 0.98
